Measurements from PubChem BioAssay AID686978 (National Center for Advancing Translational Sciences (NCATS), 2013).
Values joined by “and” are separate entries in the source; they are usually repeats but may differ in a detail not shown here. Identical values can stand only once. About 64,000 (15%) of roughly 420,000 compounds were called active. This list was built around the results that the source calls inconclusive (neither active nor inactive); the mix of calls is not that of the screen. Calls follow the shape of the dose curve; as a rule, active = well fitted inhibition curve with a large enough effect; inconclusive = small, poorly fitted or top-dose-only effect; inactive = flat fitted curve, though single readings scatter. Potencies of inconclusive entries are left out as doubtful fits.

Experiment: qHTS for Inhibitors of human tyrosyl-DNA phosphodiesterase 1 (TDP1): qHTS in cells in absence of CPT; also: nearly all actives have a fitted effect of over 55% in size
Conditions: DT40 Tdp1-/- hTDP1 cells, no CPT, ATP luminescence, 48 h; activity change, negative = growth inhibition: at 46.2 µM (top of the series) unless noted
Method in brief: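 Readout: luminescence from CellTiter-Glo after 30 min in the dark at RT. Cells: DT40 Tdp1-/- with stable hTDP1, 400/well. Exposure: compounds alone, ≥48 hr, 37 °C.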
% is scaled to controls: 0 for no effect and ±100 for the full control effect; potency is read from the fitted curve at half-maximal effect; tags tell the direction and shape of the fitted curve.

| SMILES | activity change, negative = growth inhibition | Potency |
| --- | --- | --- |
| CCOC(=O)C1CCN(C(=O)CSc2cc(=O)n(CC)c3ccccc23)CC1 | inconclusive: -30.5% [inhibitor] | – |
| CCOC(=O)C1(C(=O)OCC)COC(=O)C1CN1Cc2cc3ccccc3nc2C1 (stereo not given) | – | active: 9.2 µM |
| CC(=O)c1ccc(OC(C)C(=O)NC2CCCCC2C)cc1 (stereo not given) | – | inactive |
| CN1CCN(C(=O)c2ccc3c(c2)N(Cc2ccc(Cl)cc2)C(=O)c2ccccc2S3(=O)=O)CC1 | inconclusive: -30.1% [inhibitor] | – |
| CCC(C)NC(=O)CSCc1nc(-c2ccc(C)cc2)oc1C (stereo not given) | – | inconclusive [inhibitor, single point] |
| O=C(c1ccccc1Br)N(Cc1ccccc1F)C1CCS(=O)(=O)C1 (stereo not given) | – | inconclusive [inhibitor, single point] |
| COc1ccc(NC(=O)Cn2nc(C(F)(F)F)c3c2CCCC3)c(OC)c1 | – | inconclusive [inhibitor, full curve] |
| CCOC(=O)N1CCC(N2Cc3cccc(C(=O)Nc4ccc(F)cc4)c3C2=O)CC1 | – | inconclusive [inhibitor, partial curve] |
| O=C(c1cn(-c2ccccc2)nc1-c1cccnc1)N1CCN(S(=O)(=O)c2ccccc2F)CC1 | – | inconclusive [inhibitor, partial curve, poor fit] |
| CCOC(=O)C1=CC[C@]2(C)c3c(c4ccccc4n3C)C(=O)C1N2C | – | inactive |
| c1cc(-c2nnc3sc(C4CCCCC4)nn23)ccn1 | – | inconclusive [inhibitor, single point] |
| CSCCC(NS(=O)(=O)c1ccc(Cl)cc1)C(=O)OCC(=O)NC12CC3CC(CC(C3)C1)C2 (stereo not given) | – | inconclusive [inhibitor, single point] |
| Cc1nnc(SCC(=O)c2ccc(C(C)C)cc2)s1 | – | inconclusive [inhibitor, single point] |
| c1ccc(-c2nn3c(-c4ccccc4)nnc3o2)cc1 | – | inconclusive [inhibitor, single point] |
| CCc1ccc(N(CC)C(=O)c2sc3nc4n(c(=O)c3c2C)CCCC4)cc1 | – | active: 20.6 µM |
| COc1ccccc1CNC(=O)c1cc(C(C)=O)c[nH]1 | – | inactive |
| COc1ccc(OC(=O)C(C)N2C(=O)c3ccccc3C2=O)cc1 (stereo not given) | – | inactive |
| Oc1ccc(CN2CCCCC2)nc1-c1ccccc1 | – | inactive |
| Cc1cc(C)nc(NC(=O)c2cc(-c3ccc(C)s3)nc3ccccc23)c1 | – | active: 20.6 µM |
| COc1cc2nc(N3CCCC(O)C3)c(CNCc3ccccc3C(F)(F)F)cc2c(OC)c1OC (stereo not given) | – | inconclusive [inhibitor, partial curve] |
| COC(=O)c1c(C(=O)OC)c(-c2ccc(C(C)(C)C)cc2)n2c1CS(=O)C2 (stereo not given) | – | inconclusive [inhibitor, partial curve] |
| N#Cc1ccccc1NC(=O)CSc1nnc(-c2ccccc2O)n1-c1ccccc1 | – | inconclusive [inhibitor, single point] |
| Cc1ccc(-c2nn3c(C)nnc3s2)cc1NCc1c(F)cccc1Cl | – | active: 18.4 µM |
| CCN(CC(=O)NCCc1ccc(S(N)(=O)=O)cc1)Cc1nc2ccccc2c(=O)[nH]1 | – | inconclusive [inhibitor, single point] |

| SMILES | activity change, negative = growth inhibition | Potency |
| --- | --- | --- |
| Cc1ccc(-c2nc3cccnc3s2)cc1NS(=O)(=O)c1cccs1 | inconclusive: -31.3% [inhibitor] | – |
| CC/C(=N\NC(=O)CSCc1ccccc1Cl)c1ccc2c(c1)OCCO2 | – | inconclusive [inhibitor, single point] |
| NS(=O)(=O)c1cc(-c2nn[nH]n2)c(NCc2cccs2)cc1Cl | – | inactive |
| CCN(C(=O)c1cn(C)c(=O)c2ccccc12)c1cccc(C)c1 | – | inconclusive [inhibitor, full curve, poor fit] |
| Cn1nnnc1SCCCNCc1ccccc1OCc1ccc(F)cc1 | – | inconclusive [inhibitor, single point] |
| CN(CC(=O)Nc1ccc(F)cc1)C(=O)COC(=O)/C=C/c1ccc(OC(F)F)cc1 | inconclusive: -31.5% [inhibitor] | – |
| O=S(=O)(c1cnc(Cl)c(Br)c1)N1CCc2ccccc21 | – | inconclusive [inhibitor, single point] |
| COc1cc2ccccc2cc1C(=O)NCC(c1cccs1)N(C)C (stereo not given) | – | active: 16.4 µM |
| CCN(CC)Cc1c(O)c(Cl)cc2c3c(c(=O)oc12)CCCC3 | – | inconclusive [inhibitor, single point] |
| Cc1ccc(S(=O)(=O)NCc2ccccc2Br)cc1 | – | inconclusive [inhibitor, single point] |
| O=C(Cn1c(=O)ccc2cc(S(=O)(=O)N3CCCC3)ccc21)Nc1ccc(Cl)cc1 | – | inconclusive [inhibitor, partial curve, poor fit] |
| CCCCn1c(SCc2ncc(-c3ccccc3)o2)nc2cc(S(N)(=O)=O)ccc21 | – | active: 9.2 µM |
| C[C@H](CO)N1C[C@H](C)[C@@H](CN(C)S(=O)(=O)c2ccccc2)Oc2ccc(NC(=O)NC3CCCCC3)cc2C1=O | – | active: 20.6 µM |
| CCOC(=O)c1ccc(NC(=O)CN2C(=O)c3cccnc3Sc3ccccc32)cc1 | – | inconclusive [inhibitor, single point] |
| CC(=O)N(C)c1ccc(N=NC2C(=O)N(C(N)=S)N=C2C)cc1 (stereo not given) | – | inactive |
| CN1C(=O)[C@@](O)(c2cn(C)c3ccccc23)c2ccccc21 | – | inactive |
| O=C(CN1CCCCCC1)NC(c1ccccc1)c1ccccc1 | – | inconclusive [inhibitor, single point] |
| CC1(OC(=O)C2CCCC2)C(=O)C=C2C=C(c3ccsc3)N(c3ccccc3)C=C2C1=O (stereo not given) | – | inconclusive [inhibitor, single point] |
| O=C1Nc2ccccc2C(=O)N2[C@H](c3cccc(Br)c3)[C@@H]3C(=O)N(Cc4ccccc4)C(=O)[C@@H]3[C@H]12 | – | inconclusive [inhibitor, single point] |
| Cc1ccc(CNC(=O)CC(NC(=O)c2ccccc2)c2ccccc2)cc1 (stereo not given) | – | inactive |
| COc1ccc(Nc2ncc(C(=O)N3CCN(c4ccccc4OC)CC3)c3ccccc23)cc1 | – | active: 25.9 µM and active: 5.8 µM |
| CCOc1ccc(C(=O)NCCc2sc(-c3ccc(F)cc3)nc2C)cc1 | – | inconclusive [inhibitor, partial curve] |
| CCN(C(=O)COC(=O)CNS(=O)(=O)c1ccc2ccccc2c1)C1CCCCC1 | – | inactive |
| CN(CC(=O)Nc1ccccc1C(F)(F)F)Cc1c(O)ccc2ccccc12 | – | inactive |

| SMILES | activity change, negative = growth inhibition | Potency |
| --- | --- | --- |
| Cc1nn(Cc2c(F)c(F)c(F)c(F)c2F)c(C)c1NC(=O)c1ccc(COc2ccc(Cl)cc2Cl)o1 | – | active: 14.6 µM |
| O=C(Cn1ncc(Cl)c(Cl)c1=O)Nc1ccc2c(c1)OCO2 | – | active: 3.26 µM |
| COc1ccc(C2CC(=O)n3c(nc4ccccc43)S2)cc1OC (stereo not given) | – | inactive |
| CCN(CC)c1ccc(NC(=O)c2cccnc2)c(C)c1 | – | inconclusive [inhibitor, single point] |
| COc1ccc(CN(C)C(=O)c2ccc(NS(=O)(=O)c3ccc(F)cc3)cc2)c(OC)c1OC | – | inconclusive [inhibitor, single point] |
| COc1ccc(NC(=O)CSc2ncc3c(n2)-c2ccccc2N(C)S3(=O)=O)cc1Cl | – | inconclusive [inhibitor, single point] |
| COc1ccc(Cc2nc3ccc(C(=O)NC4CCOC4)cc3o2)cc1OC (stereo not given) | – | inconclusive [inhibitor, single point] |
| CCC1CCCCN1C(=O)NC(=O)c1ccccc1 (stereo not given) | – | inactive |
| CCN(CC)c1ccc(CNS(=O)(=O)c2cc3c(cc2C)NC(=O)CO3)cc1 | – | inconclusive [inhibitor, single point] |
| Cc1ccc(S(=O)(=O)N2CCOCC2)cc1C(=O)OC1CCOC1=O (stereo not given) | – | inactive |
| CCC(C)(C)n1nnnc1C(c1cc(OC)ccc1OC)N1CCN(Cc2ccccc2)CC1 (stereo not given) | – | inconclusive [inhibitor, single point] |
| CC(=O)c1cccc(N=c2scc(-c3ccc(S(=O)(=O)N4CCOCC4)cc3)n2CCO)c1 | – | active: 2.59 µM |
| CCOc1cc(S(=O)(=O)N2CCN(c3ccc(F)cc3)CC2)c(OCC)cc1-n1cnnn1 | – | inactive |
| CCCC(=O)Nc1ccc(NC(=O)c2ccccn2)cn1 | – | inconclusive [inhibitor, single point] |
| O=C(COC(=O)c1cc(Cl)ccc1Cl)Nc1ccc2[nH]c(=O)[nH]c2c1 | – | inactive |
| COC(=O)[C@]1(CC(C)C)N[C@H](c2ccc(-c3ccc(C(C)=O)cc3)cc2)[C@@H]2C(=O)N(C)C(=O)[C@@H]21 | inconclusive: -32.2% [inhibitor] | – |
| Cc1ccc2nc(N=C(N)N)nc(C)c2c1 | – | active: 23.1 µM |
| CCn1c(=O)n(CC)c2cc(NC(=O)C(C)c3ccccc3)c(Br)cc21 (stereo not given) | – | inconclusive [inhibitor, single point] |
| CC1CCN(C(=O)CSc2nnc(Cc3cccn3C)n2CCc2ccccc2)CC1 | – | inconclusive [inhibitor, single point] |
| Cn1c(SCc2ccccc2Cl)nc(=O)c2c1NC(=O)CC2c1cc(F)ccc1F (stereo not given) | – | inconclusive [inhibitor, partial curve] |
| CC(=O)NS(=O)(=O)c1ccc(NC(=O)c2ccc3c(c2)OCO3)cc1 | – | inactive |
| CCOC(=O)c1ccccc1NC(=O)Cn1c(=O)n(-c2ccc(CC)cc2)c(=O)c2c(C)c(C(=O)N(C)C)sc21 | – | active: 11.6 µM |
